These are yes or no findings as the source states them, for the method shown. Binding seen in cells or lysates may run through a third protein. Some entries that bind do so weakly or less than the wild type. Sequences can lack the tags named with a protein.
B1: CHR-cpVenus (full-length CHRONO fused to cpVenus on the C-terminus) (protein, UniProt Q8N365 1-385)
chain: MDSPSSVSSYSSYSLSSSFPTSPVNSDFGFPSDSEREDKGAHGPRPDTVGQRGGSRPSPGPIRCRHRSKVSGNQHTPSHPKQRGSASPMAGSGAKRSRDGELETSLNTQGCTTEGDLLFAQKCKELQGFIPPLTDLLNGLKMGRFERGLSSFQQSVAMDRIQRIVGVLQKPQMGERYLGTLLQVEGMLKTWFPQIAAQKSSLGGGKHQLTKHFPSHHSDSAASSPASPMEKMDQTQLGHLALKPKQPWHLTQWPAMNLTWIHTTPICNPPLSSPGTISFSHGPLGTGTGIGVILFLQHGVQPFTHSAPTTPVPPTTASPVIPGEPMKLSGEGPRCYSLPVTLPSDWSYTLSPPSLPTLARKMTIGHREQQRSHPPVAADAHLLNL
B2: CHRHC-cpVenus (helix region plus C-terminus of CHRONO, 111-385) (domain or fragment, UniProt Q8N365 111-385)
chain: CTTEGDLLFAQKCKELQGFIPPLTDLLNGLKMGRFERGLSSFQQSVAMDRIQRIVGVLQKPQMGERYLGTLLQVEGMLKTWFPQIAAQKSSLGGGKHQLTKHFPSHHSDSAASSPASPMEKMDQTQLGHLALKPKQPWHLTQWPAMNLTWIHTTPICNPPLSSPGTISFSHGPLGTGTGIGVILFLQHGVQPFTHSAPTTPVPPTTASPVIPGEPMKLSGEGPRCYSLPVTLPSDWSYTLSPPSLPTLARKMTIGHREQQRSHPPVAADAHLLNL
B3: CHRH3-cpVenus (CHRONO 111-264) (domain or fragment, UniProt Q8N365 111-264)
chain: CTTEGDLLFAQKCKELQGFIPPLTDLLNGLKMGRFERGLSSFQQSVAMDRIQRIVGVLQKPQMGERYLGTLLQVEGMLKTWFPQIAAQKSSLGGGKHQLTKHFPSHHSDSAASSPASPMEKMDQTQLGHLALKPKQPWHLTQWPAMNLTWIHTT
B4: CHRH4-cpVenus (CHRONO 111-298) (domain or fragment, UniProt Q8N365 111-298)
chain: CTTEGDLLFAQKCKELQGFIPPLTDLLNGLKMGRFERGLSSFQQSVAMDRIQRIVGVLQKPQMGERYLGTLLQVEGMLKTWFPQIAAQKSSLGGGKHQLTKHFPSHHSDSAASSPASPMEKMDQTQLGHLALKPKQPWHLTQWPAMNLTWIHTTPICNPPLSSPGTISFSHGPLGTGTGIGVILFLQH
B5: CHRN-cpVenus (N-terminal domain of CHRONO, 1-110) (domain or fragment, UniProt Q8N365 1-110)
chain: MDSPSSVSSYSSYSLSSSFPTSPVNSDFGFPSDSEREDKGAHGPRPDTVGQRGGSRPSPGPIRCRHRSKVSGNQHTPSHPKQRGSASPMAGSGAKRSRDGELETSLNTQG
B6: CHRH-cpVenus (helical domain of CHRONO, 111-196) (domain or fragment, UniProt Q8N365 111-196)
chain: CTTEGDLLFAQKCKELQGFIPPLTDLLNGLKMGRFERGLSSFQQSVAMDRIQRIVGVLQKPQMGERYLGTLLQVEGMLKTWFPQIA
B7: CHRC-cpVenus (C-terminal domain of CHRONO, 197-385) (domain or fragment, UniProt Q8N365 197-385)
chain: AQKSSLGGGKHQLTKHFPSHHSDSAASSPASPMEKMDQTQLGHLALKPKQPWHLTQWPAMNLTWIHTTPICNPPLSSPGTISFSHGPLGTGTGIGVILFLQHGVQPFTHSAPTTPVPPTTASPVIPGEPMKLSGEGPRCYSLPVTLPSDWSYTLSPPSLPTLARKMTIGHREQQRSHPPVAADAHLLNL
B8: CHRH2-cpVenus (CHRONO 111-262) (domain or fragment, UniProt Q8N365 111-262)
chain: CTTEGDLLFAQKCKELQGFIPPLTDLLNGLKMGRFERGLSSFQQSVAMDRIQRIVGVLQKPQMGERYLGTLLQVEGMLKTWFPQIAAQKSSLGGGKHQLTKHFPSHHSDSAASSPASPMEKMDQTQLGHLALKPKQPWHLTQWPAMNLTWIH

Amino acid sequences for entries named in this document (tags omitted). A change or cut given only in a name is not applied to a line headed by its entry. Residues count along the entry.
UniProt O00327: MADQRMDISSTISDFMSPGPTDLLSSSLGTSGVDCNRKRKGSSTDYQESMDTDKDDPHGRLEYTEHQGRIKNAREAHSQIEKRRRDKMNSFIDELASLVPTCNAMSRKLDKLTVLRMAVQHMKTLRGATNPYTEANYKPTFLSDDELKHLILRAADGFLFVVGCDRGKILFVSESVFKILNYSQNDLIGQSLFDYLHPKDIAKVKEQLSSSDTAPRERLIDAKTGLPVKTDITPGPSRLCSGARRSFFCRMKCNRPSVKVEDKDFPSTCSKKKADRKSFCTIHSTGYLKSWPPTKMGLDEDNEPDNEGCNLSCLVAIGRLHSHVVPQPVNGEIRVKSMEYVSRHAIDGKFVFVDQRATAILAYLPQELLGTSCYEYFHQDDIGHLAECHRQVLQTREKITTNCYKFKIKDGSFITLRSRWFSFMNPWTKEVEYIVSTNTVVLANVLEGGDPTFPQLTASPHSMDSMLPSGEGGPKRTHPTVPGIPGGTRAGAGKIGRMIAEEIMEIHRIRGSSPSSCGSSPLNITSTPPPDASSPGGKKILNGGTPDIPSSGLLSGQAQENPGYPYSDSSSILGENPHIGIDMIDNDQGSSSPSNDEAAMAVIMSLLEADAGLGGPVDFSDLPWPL
5Myc-6His-hBMAL1-N (BMAL1 1-490): residues 1-490 of O00327
5Myc-6His-hBMAL1-C longer version (BMAL1 490-626): residues 490-626 of O00327

Assays:
Test in all cases: co-IP; HEK-293T cells co-transfected with 5Myc-6His-BMAL1 constructs and CHR-cpVenus constructs; lysed in IP buffer (10 mM Tris pH 7.5, 150 mM NaCl, 1 mM EDTA, 1% Triton X-100, 0.1% sodium deoxycholate); immunoprecipitated with mouse anti-Myc antibodies, detected with anti-GFP antibodies
[1] = molecular target: L606A and L607A double mutant 5Myc-6His-hBMAL1 (human) (UniProt O00327)
[2] = molecular target: 5Myc-6His-hBMAL1-N (BMAL1 1-490) (human) (UniProt O00327)
[3] = molecular target: 5Myc-6His-hBMAL1 (full-length BMAL1 with a 5Myc-6His tag on the N-terminus) (human) (UniProt O00327)
[4] = molecular target: 5Myc-6His-hBMAL1-C longer version (BMAL1 490-626) (human) (UniProt O00327)

Row | Binder | binding [3] | other results
1 | B1 | binds | binding [1]: no binding; binding [2]: no binding; binding [4]: binds
2 | B2 | binds | –
3 | B3 | binds | –
4 | B4 | binds | –
5 | B5 | no binding | –
6 | B6 | no binding | –
7 | B7 | no binding | –
8 | B8 | no binding | –

— paper PMC7177903
